A lower IC50 marks a more sensitive line; a fit beyond the top or the lowest dose is shown as a bound at that dose. AUC sums up the same curve from the lowest dose to the 256-fold higher top dose: 1 means no effect, lower means more sensitive. For part of these data: An inferred top dose is not printed in the source and was worked back from the curve model. For part of these data: Drugs with an entry number were screened twice under separate entries, and the two screens often disagree.
Experiments:
Assay in all cases: Viability of human cancer cell lines after 72 h of drug (GDSC screen)
PD-0332991 = compound: CC(=O)c1c(C)c2cnc(Nc3ccc(N4CCNCC4)cn3)nc2n(C2CCCC2)c1=O [PD-0332991]
Description: (§1)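 Human cancer cell lines in 384-well plates, medium with 10% serum, drug for 72 h over a 256-fold dose range (nine 2-fold or five 4-fold steps up to the top dose). Adherent lines were fixed and stained with the nucleic acid dye Syto60, suspension lines read with resazurin; signal relative to control wells, capped at 0 and 100%. One two-parameter sigmoid per drug and line, fitted in a mixed model over all curves with the slope shared within a line.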

ZM-447439 = compound: COc1cc2c(Nc3ccc(NC(=O)c4ccccc4)cc3)ncnc2cc1OCCCN1CCOCC1 [ZM-447439]; details: top dose inferred
Description: as §1

AZD6244 = compound: Cn1cnc2c(F)c(Nc3ccc(Br)cc3Cl)c(C(=O)NOCCO)cc21 [AZD6244]; details: screen: GDSC drug entry 1062
Description: as §1

Cell Line | AUC (PD-0332991) | IC50 (PD-0332991) | AUC (ZM-447439) | IC50 (ZM-447439) | AUC (AZD6244) | IC50 (AZD6244)
RERF-LC-Sq1 (lung squamous cell carcinoma, adherent, top dose 4 µM) | 0.786 | 2.69 µM | 0.889 | > 4 µM | 0.893 | > 4 µM
RF-48 (stomach, adherent, top dose 4 µM) | 0.929 | > 4 µM | 0.976 | > 4 µM | 0.969 | > 4 µM
RH-1 (rhabdomyosarcoma, adherent, top dose 4 µM) | 0.95 | > 4 µM | 0.824 | 1.88 µM | 0.992 | > 4 µM
RH-18 (rhabdomyosarcoma, adherent, top dose 4 µM) | 0.96 | > 4 µM | 0.973 | > 4 µM | 0.94 | > 4 µM
RKO (large intestine, adherent, top dose 4 µM) | 0.768 | 1.4 µM | 0.637 | 0.579 µM | 0.526 | 0.293 µM
RL (B-cell lymphoma, suspension, top dose 4 µM) | 0.913 | > 4 µM | 0.989 | > 4 µM | 0.99 | > 4 µM
RO82-W-1 (thyroid, adherent, top dose 4 µM) | 0.701 | 1.09 µM | 0.867 | > 4 µM | 0.846 | > 4 µM
ROS-50 (B-cell leukaemia, suspension, top dose 4 µM) | 0.936 | > 4 µM | 0.981 | > 4 µM | 0.959 | > 4 µM
RPMI-2650 (head and neck, adherent, top dose 4 µM) | 0.843 | 3.19 µM | 0.954 | > 4 µM | 0.95 | > 4 µM
RPMI-6666 (Hodgkin lymphoma, suspension, top dose 4 µM) | 0.954 | > 4 µM | 0.938 | > 4 µM | 0.943 | > 4 µM
RPMI-7951 (melanoma, adherent, top dose 4 µM) | 0.747 | 1.24 µM | 0.906 | > 4 µM | 0.866 | 3.38 µM
RPMI-8226 (myeloma, suspension, top dose 4 µM) | 0.674 | 0.709 µM | 0.843 | 2.31 µM | 0.971 | > 4 µM
RPMI-8402 (T-cell lymphoblastic leukaemia, suspension, top dose 4 µM) | 0.425 | 0.162 µM | 0.691 | 0.773 µM | 0.988 | > 4 µM
RPMI-8866 (chronic myeloid leukaemia, suspension, top dose 4 µM) | 0.685 | 0.79 µM | 0.791 | 1.65 µM | 0.925 | > 4 µM
RS4-11 (leukaemia, suspension, top dose 4 µM) | 0.562 | 0.364 µM | 0.643 | 0.598 µM | 0.989 | > 4 µM
RVH-421 (melanoma, adherent, top dose 4 µM) | 0.834 | > 4 µM | 0.949 | > 4 µM | 0.502 | 0.254 µM
RXF393 (kidney, adherent, top dose 4 µM) | 0.714 | 1.29 µM | 0.856 | > 4 µM | 0.946 | > 4 µM
Raji (Burkitt lymphoma, suspension, top dose 4 µM) | 0.988 | > 4 µM | 0.99 | > 4 µM | 0.982 | > 4 µM
Ramos-2G6-4C10 (Burkitt lymphoma, suspension, top dose 4 µM) | 0.846 | 2.3 µM | 0.724 | 0.963 µM | 0.967 | > 4 µM
SAS (head and neck, adherent, top dose 4 µM) | 0.736 | 1.28 µM | 0.984 | > 4 µM | 0.967 | > 4 µM
SAT (head and neck, adherent, top dose 4 µM) | 0.866 | > 4 µM | 0.789 | 2.97 µM | 0.761 | 2.23 µM
SBC-1 (small cell lung carcinoma, suspension, top dose 4 µM) | 0.989 | > 4 µM | 0.879 | 3.84 µM | 0.988 | > 4 µM

Cell Line | AUC (PD-0332991) | IC50 (PD-0332991) | AUC (ZM-447439) | IC50 (ZM-447439) | AUC (AZD6244) | IC50 (AZD6244)
SBC-5 (small cell lung carcinoma, adherent, top dose 4 µM) | 0.99 | > 4 µM | 0.942 | > 4 µM | 0.993 | > 4 µM
SCC90 (head and neck, adherent, top dose 4 µM) | 0.981 | > 4 µM | 0.966 | > 4 µM | 0.975 | > 4 µM
SCC-9 (head and neck, adherent, top dose 4 µM) | 0.905 | > 4 µM | 0.878 | > 4 µM | 0.916 | > 4 µM
SCC-15 (head and neck, adherent, top dose 4 µM) | 0.862 | > 4 µM | 0.82 | 3.42 µM | 0.914 | > 4 µM
SCC-25 (head and neck, adherent, top dose 4 µM) | 0.913 | > 4 µM | 0.944 | > 4 µM | 0.822 | 2.74 µM
SCH (stomach, adherent, top dose 4 µM) | 0.981 | > 4 µM | 0.987 | > 4 µM | 0.988 | > 4 µM
SF126 (glioma, adherent, top dose 4 µM) | 0.92 | > 4 µM | 0.946 | > 4 µM | 0.984 | > 4 µM
SF268 (glioma, adherent, top dose 4 µM) | 0.677 | 0.812 µM | 0.906 | > 4 µM | 0.984 | > 4 µM
SF539 (glioma, adherent, top dose 4 µM) | 0.989 | > 4 µM | 0.922 | > 4 µM | 0.923 | > 4 µM
SH-4 (melanoma, adherent, top dose 4 µM) | 0.827 | > 4 µM | 0.942 | > 4 µM | 0.491 | 0.234 µM
SHP-77 (small cell lung carcinoma, semi-adherent, top dose 4 µM) | 0.853 | 2.63 µM | 0.96 | > 4 µM | 0.969 | > 4 µM
SIMA (neuroblastoma, adherent, top dose 4 µM) | 0.616 | 0.545 µM | 0.947 | > 4 µM | 0.985 | > 4 µM
SJRH30 (rhabdomyosarcoma, adherent, top dose 4 µM) | 0.908 | > 4 µM | 0.923 | > 4 µM | 0.956 | > 4 µM
SJSA-1 (bone, adherent, top dose 4 µM) | 0.715 | 1.11 µM | 0.943 | > 4 µM | 0.797 | 2.17 µM
SK-ES-1 (Ewing sarcoma, semi-adherent, top dose 4 µM) | 0.879 | > 4 µM | 0.818 | 2.45 µM | 0.926 | > 4 µM
SK-GT-2 (stomach, adherent, top dose 4 µM) | 0.921 | > 4 µM | 0.831 | 2.73 µM | 0.969 | > 4 µM
SK-GT-4 (oesophagus, adherent, top dose 4 µM) | 0.762 | 1.76 µM | 0.944 | > 4 µM | 0.982 | > 4 µM
SK-LMS-1 (soft tissue, adherent, top dose 4 µM) | 0.806 | 1.91 µM | 0.922 | > 4 µM | 0.987 | > 4 µM
SK-LU-1 (lung adenocarcinoma, adherent, top dose 4 µM) | 0.646 | 0.709 µM | 0.904 | > 4 µM | 0.726 | 1.33 µM
SK-MEL-1 (melanoma, suspension, top dose 4 µM) | 0.993 | > 4 µM | 0.986 | > 4 µM | 0.991 | > 4 µM
SK-MEL-3 (melanoma, adherent, top dose 4 µM) | 0.911 | > 4 µM | 0.981 | > 4 µM | 0.662 | 0.762 µM
SK-MEL-5 (melanoma, adherent, top dose 4 µM) | 0.845 | 3.92 µM | 0.934 | > 4 µM | 0.95 | > 4 µM

Cell Line | AUC (PD-0332991) | IC50 (PD-0332991) | AUC (ZM-447439) | IC50 (ZM-447439) | AUC (AZD6244) | IC50 (AZD6244)
SK-MEL-31 (melanoma, adherent, top dose 4 µM) | 0.978 | > 4 µM | 0.985 | > 4 µM | 0.985 | > 4 µM
SK-MES-1 (lung squamous cell carcinoma, adherent, top dose 4 µM) | 0.764 | 1.58 µM | 0.908 | > 4 µM | 0.866 | > 4 µM
SK-MG-1 (glioma, adherent, top dose 4 µM) | 0.831 | 2.58 µM | 0.913 | > 4 µM | 0.981 | > 4 µM
SK-MM-2 (myeloma, suspension, top dose 4 µM) | 0.97 | > 4 µM | 0.987 | > 4 µM | 0.987 | > 4 µM
SK-N-AS (neuroblastoma, adherent, top dose 4 µM) | 0.805 | 2.39 µM | 0.925 | > 4 µM | 0.98 | > 4 µM
SK-N-FI (neuroblastoma, adherent, top dose 4 µM) | 0.898 | > 4 µM | 0.99 | > 4 µM | 0.915 | > 4 µM
SK-N-SH (neuroblastoma, adherent, top dose 4 µM) | 0.823 | 2.33 µM | 0.916 | > 4 µM | 0.953 | > 4 µM
SK-OV-3 (ovary, adherent, top dose 4 µM) | 0.85 | > 4 µM | 0.953 | > 4 µM | 0.978 | > 4 µM
SK-PN-DW (Ewing sarcoma, adherent, top dose 4 µM) | 0.919 | > 4 µM | 0.82 | 2.41 µM | 0.929 | > 4 µM
SKG-IIIa (cervix, adherent, top dose 4 µM) | 0.983 | > 4 µM | 0.937 | > 4 µM | 0.982 | > 4 µM
SKM-1 (haematopoietic neoplasm, suspension, top dose 4 µM) | 0.597 | 0.475 µM | 0.731 | 1.23 µM | 0.758 | 1.52 µM
SKN (uterus, adherent, top dose 4 µM) | 0.601 | 0.503 µM | 0.821 | 2.97 µM | 0.95 | > 4 µM
SLVL (B-cell lymphoma, suspension, top dose 4 µM) | 0.977 | > 4 µM | 0.978 | > 4 µM | 0.979 | > 4 µM
SNB75 (glioma, adherent, top dose 4 µM) | 0.978 | > 4 µM | 0.957 | > 4 µM | 0.947 | > 4 µM
SNG-M (endometrium, adherent, top dose 4 µM) | 0.929 | > 4 µM | 0.912 | > 4 µM | 0.96 | > 4 µM
SNU-61 (large intestine, adherent, top dose 4 µM) | 0.959 | > 4 µM | 0.945 | > 4 µM | 0.978 | > 4 µM
SNU-81 (large intestine, adherent, top dose 4 µM) | 0.841 | > 4 µM | 0.811 | 3.09 µM | 0.935 | > 4 µM
SNU-387 (liver, adherent, top dose 4 µM) | 0.826 | 2.88 µM | 0.953 | > 4 µM | 0.98 | > 4 µM
SNU-407 (large intestine, adherent, top dose 4 µM) | 0.823 | 2.89 µM | 0.811 | 2.57 µM | 0.949 | > 4 µM
SNU-449 (liver, adherent, top dose 4 µM) | 0.889 | > 4 µM | 0.97 | > 4 µM | 0.986 | > 4 µM

Reference: the supplement of paper PMC4967469
